Measurements taken from PubChem BioAssay AID588855 (National Center for Advancing Translational Sciences (NCATS), 2011).
Out of some 410,000 compounds screened, about 5,000 (1.2%) were called active. Inconclusive means that the source gave no clear call. Such entries were picked first, then a sample of the others. The call rests on the fitted dose curve; in most records, active means well fitted inhibition curve with a large enough effect; inconclusive means small, poorly fitted or top-dose-only effect; inactive means no such curve, though single readings can be large or run the other way. Potencies beside an inconclusive call are fits to weak or partial responses and may not hold up.

Experiment: qHTS for Inhibitors of TGF-b; further: nearly all actives have a fitted effect of over 65% in size
Conditions: HepG2 CAGA-GFP TGF-b/SMAD3 reporter, GFP fluorescence, 18 h, TGF-beta stimulated, 500 pg/mL final; series mostly up to 46.1 µM
How it was run: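 Using HEPG2 CAGA-GFP reporter cells at 1000 cells/well, we pinned test compounds, stimulated with recombinant TGF-beta (500 pg/mL final) and measured total well GFP after 18 h.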
Potency means the concentration at half of the fitted maximal effect; tags describe the fitted curve by direction and shape.

SMILES | Potency
CCOC(=O)c1ccc(NC(=S)N2CCSC2c2c(F)cc(F)cc2F)cc1 (stereo not given) | inconclusive: 35.5 µM [inhibitor, single point]
O=C(NCC(c1ccco1)N1CCCCC1)c1ccc(COc2ccccc2)cc1 (stereo not given) | inactive
COc1ccc(-c2nc3cnccn3c2NC(C)(C)CC(C)(C)C)cc1O | inconclusive: 25.1 µM [inhibitor, single point]
CCOC(=O)N1CCC(NC(=O)c2cc(C(=O)NCC(OC)OC)ccc2CO)CC1 | inconclusive: 3.16 µM [inhibitor, partial curve, poor fit]
c1cnc2ccc(C(c3nnnn3C3CCCCC3)N3CCN(C4CCCCC4)CC3)cc2c1 (stereo not given) | inactive
O=C(Cn1nc(Cc2cccnc2)c2ccccc2c1=O)Nc1ccc(F)c(Cl)c1 | inconclusive: 35.5 µM [inhibitor, single point]
CC(=O)/C=C/c1ccc2c(c1)S(=O)(=O)N(C1CCCC1)[C@H]2CC(C)=O | active: 7.08 µM
COc1cccc(CNC(=O)c2sc3ncccc3c2-n2c(C)ccc2C)c1OC | inconclusive: 8.91 µM [inhibitor, partial curve, poor fit]
O=C1N/C(=N/N=C/c2ccc(O)cc2)SC1Cc1ccccc1 (stereo not given) | inactive
COc1cc(C(=O)N(Cc2ccccc2)c2cccc(C)c2)ccc1OC(F)F | inconclusive: 35.5 µM [inhibitor, single point]
Cc1ccsc1/C=N/NC(=O)C1CC(=O)N(c2ccc(F)cc2)C1 (stereo not given) | inconclusive: 35.5 µM [inhibitor, single point]
COc1ccc(-n2nc(C(=O)NCCc3ccc(OC)c(OC)c3)c3c4ccccc4n(C)c3c2=O)cc1 | inconclusive: 3.98 µM [inhibitor, single point]
Cc1ccccc1-c1nc(CS(=O)(=O)CC(=O)NCCCc2ccccc2)c(C)o1 | inconclusive: 35.5 µM [inhibitor, partial curve, poor fit]
CCCn1c(=O)c(C(=O)NCCCc2ccccc2)c(O)c2ccccc21 | inconclusive: 35.5 µM [inhibitor, single point]
NS(=O)(=O)c1cccc(-n2cnnn2)c1 | inactive
Cc1cccc(C(=O)N2[C@@H](C(C)C)COc3cc(Br)ccc3S2(=O)=O)c1 | inconclusive: 31.6 µM [inhibitor, single point]
COc1cc(OC)cc(C(=O)NC2CCN(CCCOc3ccccc3)CC2)c1 | inactive
Cc1[nH]c2ccccc2c1/C=N/Nc1nc(Nc2ccccc2)nc(N2CCOCC2)n1 | inactive
Nc1nc(Nc2ccccc2F)nc(NC2CCCCC2)c1[N+](=O)[O-] | inconclusive: 35.5 µM [inhibitor, single point]
O=C1C(Cl)=C(Nc2ccccc2)C(=O)c2ccccc21 | active: 4.47 µM

SMILES | Potency
CN(C(=O)CN1C(=O)NC(C)(c2cccc(Br)c2)C1=O)C1CCCCC1 (stereo not given) | inconclusive: 35.5 µM [inhibitor, single point]
O=c1[nH]c(C2CCCN(S(=O)(=O)c3ccccc3F)C2)nc2c1nnn2Cc1ccccc1Cl (stereo not given) | inconclusive: 25.1 µM [inhibitor, single point]
CCn1c2ccccc2c2cc(/C=N/NC(=O)c3ccccc3)ccc21 | inconclusive: 12.6 µM [inhibitor, partial curve]
CC1(C)COC(/C=C/c2cccc([N+](=O)[O-])c2)=N1 | inconclusive: 22.4 µM [inhibitor, partial curve, poor fit]
COc1ccccc1NC(=O)CSc1nnc(NC(=O)C2CCC2)s1 | inconclusive: 12.6 µM [inhibitor, single point]
CCc1ccccc1NC(=O)CSc1nnc([C@@H](NC(=O)OC(C)(C)C)C(C)C)o1 | inconclusive: 35.5 µM [inhibitor, single point]
C#CCOCCOCCOCCNc1nc(N2CCN(C(=O)[C@H]([C@@H](C)CC)n3cc([C@@H](N)CO)nn3)CC2)nc(N2CCN(C(=O)[C@H]([C@@H](C)CC)n3cc([C@@H](N)CC(C)C)nn3)CC2)n1 | inconclusive: 35.5 µM [inhibitor, single point]
Cn1c(=O)[nH]c(=O)c2c1nc(Br)n2CCCSc1nc2ccccc2o1 | inconclusive: 15.8 µM [inhibitor, single point]
CCCC[C@@H]1CCCO[C@@](C(=O)NCc2cc(C)n(C)n2)(C(F)(F)F)C1 | inconclusive: 20 µM [inhibitor, partial curve, poor fit]
Cc1ccccc1CN1C[C@@H]2C[C@@H](c3ccc4nsnc4c3)N3CCC[C@@]23C1=O | inconclusive: 12.6 µM [inhibitor, single point]
COc1ccccc1/C=C/C(=O)/C=C/c1ccccc1O | inconclusive: 0.501 µM [inhibitor, full curve, poor fit]
C/C(N)=C(/C#N)C(=O)CSc1nn(-c2ccc(Cl)cc2)c(=S)s1 | inconclusive: 12.6 µM [inhibitor, partial curve, poor fit]
Cc1cccc(C)c1NC(=O)C(Cl)=C(Cl)Cl | inactive
COC(=O)c1ccsc1NC(=O)CSc1nnnn1Cc1ccccc1 | inconclusive: 25.1 µM [inhibitor, single point]
Cc1ccc(CN(C)C(=O)c2ccc(NS(=O)(=O)c3ccc4[nH]c(=O)[nH]c4c3)cc2)cc1 | inconclusive: 35.5 µM [inhibitor, single point]
Cc1nn(C)c(C)c1S(=O)(=O)N(CC(=O)Nc1ccc(F)cc1F)c1ccc(C(C)C)cc1 | inconclusive: 35.5 µM [inhibitor, single point]
CN(C)C(=S)N=c1ssc(=S)n1Cc1ccco1 | inconclusive: 0.316 µM [inhibitor, full curve, poor fit]
Cc1nn(-c2ccccc2)c(N)c1Sc1cccc([N+](=O)[O-])c1 | inactive
CCN1C(=O)[C@H]2[C@@H](c3ccc(C)cc3)N[C@]3(CCCN(Cc4cccn4C)C3=O)[C@H]2C1=O | inconclusive: 35.5 µM [inhibitor, single point]
CCN(CC)c1nc(N(CC)CC)[nH]c(=O)n1 | inconclusive: 35.5 µM [inhibitor, single point]
